Where a chain is given by its changes, count along the chain named. This is one part of the list.

This note sets out measurements from PMC9911399, “Two distinct binding modes provide the RNA-binding protein RbFox with extraordinary sequence specificity”.

To fix the notation:
T1: RBFOX1 RRM RbFoxmut (Fox-RRM*) (Homo sapiens, UniProt Q9NWB1 109-208, R118D;E147R;N151S;E152T)
T1 sequence: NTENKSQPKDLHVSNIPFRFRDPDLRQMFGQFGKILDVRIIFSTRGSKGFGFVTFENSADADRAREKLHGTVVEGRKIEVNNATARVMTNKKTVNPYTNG

B1: GGUGUUA (DNA:RNA)
RNA: GGGAGACCGGAAUUCAGAUUGUCCGGUGUUAUUAAAUCCCGUCGUAGCCACCA
DNA 1: CAATCTGAATTCCGGTCTCCC
DNA 2: TGGTGGCTACGACGGGATT
B2: AGACUUC (DNA:RNA)
RNA: B1 RNA with G25A, U27A, G28C, A31C
DNA 1: CAATCTGAATTCCGGTCTCCC
DNA 2: TGGTGGCTACGACGGGATT
B3: GACACGG (DNA:RNA)
RNA: B1 RNA with G26A, U27C, G28A, U29C, U30G, A31G
DNA 1: CAATCTGAATTCCGGTCTCCC
DNA 2: TGGTGGCTACGACGGGATT
B4: GGACUUU (DNA:RNA)
RNA: B1 RNA with U27A, G28C, A31U
DNA 1: CAATCTGAATTCCGGTCTCCC
DNA 2: TGGTGGCTACGACGGGATT
B5: AGUGCUA (DNA:RNA)
RNA: B1 RNA with G25A, U29C
DNA 1: CAATCTGAATTCCGGTCTCCC
DNA 2: TGGTGGCTACGACGGGATT
B6: CCGAAUC (DNA:RNA)
RNA: B1 RNA with G25C, G26C, U27G, G28A, U29A, A31C
DNA 1: CAATCTGAATTCCGGTCTCCC
DNA 2: TGGTGGCTACGACGGGATT
B7: GUACAUU (DNA:RNA)
RNA: B1 RNA with G26U, U27A, G28C, U29A, A31U
DNA 1: CAATCTGAATTCCGGTCTCCC
DNA 2: TGGTGGCTACGACGGGATT
B8: UGACUCC (DNA:RNA)
RNA: B1 RNA with G25U, U27A, G28C, U30C, A31C
DNA 1: CAATCTGAATTCCGGTCTCCC
DNA 2: TGGTGGCTACGACGGGATT
B9: CUCUAAC (DNA:RNA)
RNA: GGGAGACCGGAAUUCAGAUUGUCCCUCUAACUUAAAUCCCGUCGUAGCCACCA
DNA 1: CAATCTGAATTCCGGTCTCCC
DNA 2: TGGTGGCTACGACGGGATT
B10: UGCGUUA (DNA:RNA)
RNA: B1 RNA with G25U, U27C
DNA 1: CAATCTGAATTCCGGTCTCCC
DNA 2: TGGTGGCTACGACGGGATT
B11: UACCCGU (DNA:RNA)
RNA: B9 RNA with C25U, U26A, U28C, A29C, A30G, C31U
DNA 1: CAATCTGAATTCCGGTCTCCC
DNA 2: TGGTGGCTACGACGGGATT
B12: UUUCACG (DNA:RNA)
RNA: B9 RNA with C25U, C27U, U28C, A30C, C31G
DNA 1: CAATCTGAATTCCGGTCTCCC
DNA 2: TGGTGGCTACGACGGGATT
B13: GGUUAUC (DNA:RNA)
RNA: B1 RNA with G28U, U29A, A31C
DNA 1: CAATCTGAATTCCGGTCTCCC
DNA 2: TGGTGGCTACGACGGGATT
B14: CCCAGAG (DNA:RNA)
RNA: B9 RNA with U26C, U28A, A29G, C31G
DNA 1: CAATCTGAATTCCGGTCTCCC
DNA 2: TGGTGGCTACGACGGGATT
B15: AUCUAGU (DNA:RNA)
RNA: B9 RNA with C25A, A30G, C31U
DNA 1: CAATCTGAATTCCGGTCTCCC
DNA 2: TGGTGGCTACGACGGGATT
B16: AUAUUGC (DNA:RNA)
RNA: B9 RNA with C25A, C27A, A29U, A30G
DNA 1: CAATCTGAATTCCGGTCTCCC
DNA 2: TGGTGGCTACGACGGGATT
B17: CUUAUCG (DNA:RNA)
RNA: B9 RNA with C27U, U28A, A29U, A30C, C31G
DNA 1: CAATCTGAATTCCGGTCTCCC
DNA 2: TGGTGGCTACGACGGGATT
B18: GAUCUAA (DNA:RNA)
RNA: B1 RNA with G26A, G28C, U30A
DNA 1: CAATCTGAATTCCGGTCTCCC
DNA 2: TGGTGGCTACGACGGGATT
B19: GGUGACU (DNA:RNA)
RNA: B1 RNA with U29A, U30C, A31U
DNA 1: CAATCTGAATTCCGGTCTCCC
DNA 2: TGGTGGCTACGACGGGATT
B20: AGAAAGA (DNA:RNA)
RNA: B1 RNA with G25A, U27A, G28A, U29A, U30G
DNA 1: CAATCTGAATTCCGGTCTCCC
DNA 2: TGGTGGCTACGACGGGATT
B21: UUAUUUU (DNA:RNA)
RNA: B9 RNA with C25U, C27A, A29U, A30U, C31U
DNA 1: CAATCTGAATTCCGGTCTCCC
DNA 2: TGGTGGCTACGACGGGATT
B22: UGCGAUG (DNA:RNA)
RNA: B1 RNA with G25U, U27C, U29A, A31G
DNA 1: CAATCTGAATTCCGGTCTCCC
DNA 2: TGGTGGCTACGACGGGATT
B23: UUACUCU (DNA:RNA)
RNA: B9 RNA with C25U, C27A, U28C, A29U, A30C, C31U
DNA 1: CAATCTGAATTCCGGTCTCCC
DNA 2: TGGTGGCTACGACGGGATT
B24: UGAAGUG (DNA:RNA)
RNA: B1 RNA with G25U, U27A, G28A, U29G, A31G
DNA 1: CAATCTGAATTCCGGTCTCCC
DNA 2: TGGTGGCTACGACGGGATT
B25: AACCUCA (DNA:RNA)
RNA: B1 RNA with G25A, G26A, U27C, G28C, U30C
DNA 1: CAATCTGAATTCCGGTCTCCC
DNA 2: TGGTGGCTACGACGGGATT
B26: GGACGAC (DNA:RNA)
RNA: B9 RNA with C25G, U26G, C27A, U28C, A29G
DNA 1: CAATCTGAATTCCGGTCTCCC
DNA 2: TGGTGGCTACGACGGGATT
B27: AACGGUG (DNA:RNA)
RNA: B1 RNA with G25A, G26A, U27C, U29G, A31G
DNA 1: CAATCTGAATTCCGGTCTCCC
DNA 2: TGGTGGCTACGACGGGATT
B28: UGAAUCU (DNA:RNA)
RNA: B1 RNA with G25U, U27A, G28A, U30C, A31U
DNA 1: CAATCTGAATTCCGGTCTCCC
DNA 2: TGGTGGCTACGACGGGATT
B29: UUCGUAG (DNA:RNA)
RNA: B9 RNA with C25U, U28G, A29U, C31G
DNA 1: CAATCTGAATTCCGGTCTCCC
DNA 2: TGGTGGCTACGACGGGATT
B30: GGAGCCG (DNA:RNA)
RNA: B1 RNA with U27A, U29C, U30C, A31G
DNA 1: CAATCTGAATTCCGGTCTCCC
DNA 2: TGGTGGCTACGACGGGATT
B31: CAAGAGA (DNA:RNA)
RNA: B9 RNA with U26A, C27A, U28G, A30G, C31A
DNA 1: CAATCTGAATTCCGGTCTCCC
DNA 2: TGGTGGCTACGACGGGATT

The target in the assay is T1, RBFOX1 RRM RbFoxmut (Fox-RRM*). In words: EMSA; HiTS-Eq, 1 nM pool, 10 min; buffer printed only for the single-RNA assays: 10 mM Tris pH 7.5, 150 mM NaCl, 3.4 mM EDTA, 0.001% NP-40, 30 C. Conditions: tags: His6 N-terminal (pET28a); label: 5' 32P. An outline of the steps:
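Purified RbFox RRM (wild type or mutant) was equilibrated for 10 min in 50 µL with 1 nM of a 5′-radiolabelled pool of RNA with 7 randomized nucleotides, its flanks annealed to DNA oligonucleotides, across increasing protein concentrations. Free RNA was separated by 8% native PAGE, excised, reverse-transcribed, PCR-barcoded and sequenced on an Illumina HiSeq 2500. Relative association constants came from read-count changes of each variant against the control reaction, normalised to the cognate motif.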
With B1, the binding signal is 0.12 KA relative to UGCAUGU.

As to B2, the binding signal was 0.0578 KA relative to UGCAUGU.

Take B3: the binding signal is 0.0551 KA relative to UGCAUGU. Under B4 stands 0.0541 KA relative to UGCAUGU; under B5, 0.124 KA relative to UGCAUGU; under B6, 0.173 KA relative to UGCAUGU. As for B7, the figure is 0.0921 KA relative to UGCAUGU. Under B8 stands 0.0842 KA relative to UGCAUGU. Consider B9, for which the binding signal is 0.0722 KA relative to UGCAUGU. As for B10, the figure is 0.154 KA relative to UGCAUGU; as for B11, 0.094 KA relative to UGCAUGU. Under B12 stands 0.132 KA relative to UGCAUGU. As for B13, the figure is 0.162 KA relative to UGCAUGU; as for B14, 0.105 KA relative to UGCAUGU. With B15, the binding signal is 0.14 KA relative to UGCAUGU.

As for B16, the binding signal was 0.133 KA relative to UGCAUGU. For the molecule B17, the binding signal was 0.078 KA relative to UGCAUGU. As for B18, the figure is 0.0764 KA relative to UGCAUGU. As for B19, the figure is 0.0583 KA relative to UGCAUGU; as for B20, 0.0869 KA relative to UGCAUGU; as for B21, 0.088 KA relative to UGCAUGU. B22: the binding signal is 0.493 KA relative to UGCAUGU. Under B23 stands 0.0472 KA relative to UGCAUGU; under B24, 0.152 KA relative to UGCAUGU. For the molecule B25, the binding signal is 0.104 KA relative to UGCAUGU.

Take B26: the binding signal is 0.0798 KA relative to UGCAUGU.

Regarding B27, the binding signal is 0.0984 KA relative to UGCAUGU. Under B28 stands 0.244 KA relative to UGCAUGU. Under B29 stands 0.15 KA relative to UGCAUGU; under B30, 0.0931 KA relative to UGCAUGU; under B31, 0.0927 KA relative to UGCAUGU.
